Source: PubChem BioAssay AID686979 (National Center for Advancing Translational Sciences (NCATS), 2013)
“And” between values parts separate entries of the source, which are not always exact repeats. Equal entries are not always repeated. The campaign covered roughly 420,000 compounds. About 50,000 (12%) were called active. Inconclusive results, whose numbers are uncertain, are shown with a selection of clear calls. Calls come from the whole dose curve; as a rule, active = well fitted inhibition curve with a large enough effect; inconclusive = small, poorly fitted or top-dose-only effect; inactive = flat fitted curve, though single readings scatter. Potencies of inconclusive entries are doubtful fits and often do not repeat.

Test: qHTS for Inhibitors of human tyrosyl-DNA phosphodiesterase 1 (TDP1): qHTS in cells in presence of CPT; note: nearly all actives have a fitted effect of over 55% in size
Details: chicken DT40 Tdp1-/-;hTDP1 cells + 20 nM CPT, ATP luminescence, 48 h; activity change, negative = growth inhibition: at 46.2 µM (top of the series) unless noted
Method in brief: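 Chicken DT40 Tdp1-/- cells stably complemented with human TDP1 were seeded at 400 cells/well in medium containing 20 nM camptothecin, exposed to pin-transferred compounds, and grown at 37 °C for at least 48 hr. Viability was read as ATP luminescence.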
% is set by controls: 0 for no effect and ±100 for the full control effect; potency is the fitted concentration of half-maximal effect; tags give direction and shape of the fitted curve.

Row | SMILES | activity change, negative = growth inhibition | Potency
1 | CCOC(=O)CSc1nnc(NC(=O)C2CC(=O)N(c3ccc(F)cc3)C2)s1 (stereo not given) | inactive: -2.28% | 
2 | Cc1cccc(N2C(=O)N3[C@@H]4c5ccccc5OC[C@@H]4[C@@H](c4ccccc4)[C@@]3(C)C2=O)c1 |  | inconclusive: 20.6 µM [inhibitor, partial curve]
3 | COC(=O)[C@H](C)NC(=O)NCCC1=CCCCC1 |  | inconclusive: 29.1 µM [inhibitor, single point]
4 | Cc1ccc(OC(C)C(=O)Nc2cccc(S(=O)(=O)N3CCCCCC3)c2)cc1 (stereo not given) |  | inconclusive: 29.1 µM [inhibitor, single point]
5 | CC(C)(C)C(=O)Cn1c(=O)n(-c2ccccc2)c(=O)c2c3c(sc21)CCC3 |  | active: 14.6 µM
6 | Cc1ccc(NC(=O)CN2C(=O)COc3ccc(S(=O)(=O)NC4CCCC4)cc32)cc1Cl |  | inconclusive: 20.6 µM [inhibitor, single point]
7 | c1ccc2c(-c3nnc4n3CCCCC4)c[nH]c2c1 |  | inconclusive: 29.1 µM [inhibitor, single point]
8 | O=C(CN1C(=O)c2cccnc2Oc2ccc(Cl)cc21)NCCc1ccccc1 |  | inconclusive: 18.4 µM [inhibitor, single point]
9 | C/C(=N\NC1=NCCN1)c1ccc(Cl)cc1 | inactive: 1.26% | 
10 | Cc1ccc(Cl)cc1NC(=S)N1CCC(c2ccccc2)C1 (stereo not given) | inactive: 4.35% | 
11 | O=C1C=C(Nc2cccc(Cl)c2)CC(c2ccco2)C1 (stereo not given) |  | inconclusive: 25.9 µM [inhibitor, single point]
12 | COc1cccc(-c2nnc(SC(C(=O)c3c[nH]c4ccccc34)c3ccccc3)n2C)c1 (stereo not given) |  | active: 23.1 µM
13 | O=C(Cc1ccc(OCc2ccccc2)cc1)NCc1ccc2c(c1)OCO2 |  | inconclusive: 8.2 µM [inhibitor, partial curve]
14 | CCOC(=O)c1c(C)[nH]c(C)c1S(=O)(=O)NCCc1cccs1 | inactive: 5.7% | 
15 | Cc1sc(NC(=O)c2ccco2)nc1-c1ccc2c(c1)CC(C)N2C(=O)C1CC1 (stereo not given) |  | active: 6.31 µM
16 | O=C(NCc1ccccc1)C(c1ccccc1)n1c(=O)c(-c2cc3ccccc3[nH]2)nc2ccccc21 (stereo not given) |  | inconclusive: 23.1 µM [inhibitor, single point]
17 | COc1cccc(NCCC(=O)c2cccc([N+](=O)[O-])c2)c1 |  | inconclusive: 20.6 µM [inhibitor, single point]
18 | Cc1nn(-c2ccccc2)c2nc(-c3ccncc3)cc(C(=O)NCc3ccco3)c12 |  | inconclusive: 29.1 µM [inhibitor, single point]
19 | CC(=O)Nc1ccnc(-c2cccnc2)n1 | inconclusive: -31.6% [inhibitor] | 
20 | Cn1c(CC(=O)Nc2ccccc2F)nnc1SCC(=O)Nc1ccccc1Br | inactive: -25.5% | 
21 | COC(=O)c1sc(=S)n(-c2ccccc2)c1N |  | inconclusive: 35.5 µM [inhibitor, single point]
22 | COC(=O)c1ccccc1NC(=O)CSc1nc(Nc2ccccc2)nc(N2CCOCC2)n1 |  | inconclusive: 18.4 µM [inhibitor, single point]
23 | COC(=O)c1cccc(NC(=O)NC23CC4CC(CC(C4)C2)C3)c1 |  | inconclusive: 29.1 µM [inhibitor, single point]

Row | SMILES | activity change, negative = growth inhibition | Potency
24 | O=C(/C=C/c1ccccc1)Nc1cccc(C(=O)NCCCc2ccccc2)c1 |  | inconclusive: 29.1 µM [inhibitor, single point]
25 | CC(C)(C)c1ccc(OCC(=O)NNC(=S)NC(=O)c2ccccc2[N+](=O)[O-])c(Br)c1 |  | active: 23.1 µM
26 | O=C(c1cccc([N+](=O)[O-])c1)N1CCN(C(=O)c2ccco2)CC1 | inactive: 3.27% | 
27 | O=C(c1ccc(OCC2CCCO2)cc1)N1CCc2ccccc2C1 (stereo not given) |  | inconclusive: 18.4 µM [inhibitor, partial curve]
28 | CCOP(=O)(OCC)C(Nc1ccc(F)cc1)c1ccccc1 (stereo not given) | inactive: -3.35% | 
29 | O=C(O)c1ccc(NS(=O)(=O)c2cccc(C(=O)Nc3cccc(C(=O)O)c3)c2)cc1 | inactive: -8.71% | 
30 | O=S(=O)(c1ccc2c(c1)OCCO2)N1CCN(c2cccc(Cl)c2)CC1 |  | inconclusive: 23.1 µM [inhibitor, single point]
31 | C/C(=N\NC(=O)c1c(Cl)c(C)nn1C)c1cccc(NC(=O)c2cccc(F)c2)c1 |  | inconclusive: 16.4 µM [inhibitor, single point]
32 | O=C(CCn1c2c(c3ccccc31)CCCC2)NNC(=O)c1ccc([N+](=O)[O-])cc1 |  | active: 20.6 µM
33 | O=C(COc1coc(CN2CCN(c3ccccc3F)CC2)cc1=O)N1CCc2ccccc21 | inactive: -16.5% | 
34 | COc1ccc(C(=O)NCc2cccnc2)cc1S(=O)(=O)N1CCCc2ccccc21 |  | inconclusive: 23.1 µM [inhibitor, single point]
35 | ClCCCc1cn(C[C@H]2CC[C@@H]([C@@H]3CC[C@H](Cn4cc(CCCCl)nn4)O3)O2)nn1 |  | inconclusive: 14.6 µM [inhibitor, single point]
36 | CC/C(CC(=O)C(F)(F)F)=N\NC(=O)/C(C#N)=C/N(C)C | inactive: 2.29% | 
37 | Cc1cc(Nc2nc(Cl)c(Cl)cc2Cl)n(-c2ccccc2)n1 |  | inconclusive: 29.1 µM [inhibitor, single point]
38 | O=C(Nc1ccccc1Cl)c1ccc2c(c1)N(Cc1ccc(F)cc1)C(=O)CS2=O (stereo not given) |  | active: 16.4 µM
39 | Cc1ccc(C(=O)N2CC(=O)NC(=O)C2)cc1 | inactive: 5.59% | 
40 | Cc1ccc(CNC(=O)CN(c2cccc(C)c2C)S(=O)(=O)c2ccccc2)cc1 |  | active: 16.4 µM
41 | COc1ccc(CCNC(=O)C(=O)Nc2ccc3nc4n(c(=O)c3c2)CCCCC4)cc1OC |  | inconclusive: 29.1 µM [inhibitor, single point]
42 | CCC(CC)C(=O)Nc1ccc2nc(SCC(=O)N3CCc4ccccc43)sc2c1 |  | active: 4.61 µM
43 | COCCNC(=O)C1CCCN(C(=O)COc2ccc(Cl)cc2Cl)CC1 (stereo not given) | inactive: -10.5% | 
44 | O=S(=O)(c1cccc2cnccc12)N1CCNCC1 |  | inconclusive: 33.5 µM [inhibitor, partial curve, poor fit] and inconclusive: 25.9 µM [inhibitor, single point]
45 | COc1ccc(C2Nc3cccc4cccc(c34)N2)cc1Br |  | inconclusive: 29.1 µM [inhibitor, single point]
